The whole screen tested about 390,000 compounds, of which about 2,200 (0.56%) were called active. The shares of active, inactive and inconclusive entries below differ from those in the screen. The call rests on the fitted dose curve; in most records, active means well fitted inhibition curve with a large enough effect; inconclusive means small, poorly fitted or top-dose-only effect; inactive means no such curve, though single readings can be large or run the other way. A potency beside an inconclusive call is a rough fit, not a confirmed value.
Each compound was assayed against Chromobox protein homolog 1 (Homo sapiens) (UniProt P83916) (assay: HTS for Inhibitors of HP1-beta Chromodomain Interactions with Methylated Histone Tails). Conditions: AlphaScreen HP1-beta / biotin-H3K9me3 peptide binding; series mostly up to 114 µM.
Method in brief: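 Compound inhibition of the preformed complex between 50 nM HP1-beta and 50 nM biotinylated H3K9me3 peptide was read by AlphaScreen. Buffer was PBS pH 7.4 with 0.01% Tween-20. Incubations ran 30 min at room temperature, with 10 ug/mL donor/acceptor beads.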
Further: nearly all actives have a fitted effect of over 70% in size.
Potency means the concentration at half of the fitted maximal effect; tags describe the fitted curve by direction and shape.

Sequence of UniProt P83916 (P83916 whole entry, looked up): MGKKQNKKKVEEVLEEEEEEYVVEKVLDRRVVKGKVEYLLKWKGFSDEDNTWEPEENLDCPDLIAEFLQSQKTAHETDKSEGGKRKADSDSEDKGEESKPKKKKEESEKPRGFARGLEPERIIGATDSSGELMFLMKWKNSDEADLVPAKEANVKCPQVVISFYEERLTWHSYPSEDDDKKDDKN

Row | Compound | Potency
1 | COc1ccc(CNC2CCSc3ccccc32)cc1OC (stereo unspecified) | inconclusive: 56.2 µM [inhibitor, partial curve, poor fit]
2 | C=CC[n+]1ccc(/C=C2\C=Cc3cc(C)ccc3N2CC)c2ccccc21 | inconclusive: 22.4 µM [inhibitor, full curve]
3 | CCN(CC)S(=O)(=O)c1ccc2oc(C(=O)NCc3ccccc3OC)c(C)c2c1 | inactive
4 | CSc1nnc(-c2ccccc2)n1N | inactive
5 | CCCN(CCO)Cc1ccc(Cl)c(Cl)c1 | inconclusive: 15.8 µM [inhibitor, full curve]
6 | CC(Nc1cc(N2CCN(S(C)(=O)=O)CC2)ccc1[N+](=O)[O-])c1ccccc1 (stereo unspecified) | inactive
7 | O=C(CC12CC3CC(CC(C3)C1)C2)NC(=S)N1CCCCC1 | inconclusive: 22.4 µM [inhibitor, single point]
8 | CCN(CC)CCN(C)Cc1ccc(Br)cc1 | inconclusive: 79.4 µM [inhibitor, partial curve]
9 | O=C(/C=C/c1ccccc1)NCCc1c[nH]c2ccccc12 | inconclusive: 79.4 µM [inhibitor, partial curve, poor fit]
10 | CNc1ccc(C=C2C=Cc3ccccc32)cc1 | active: 39.8 µM
11 | CCN(CC)CCCNC(=O)c1nn(-c2ccc(C)cc2)c(=O)c2c1c1ccccc1n2C | inactive
12 | Cc1ccc2nc(NC(=O)C3CCN(S(=O)(=O)c4cccnc4)CC3)sc2c1 | inconclusive: 28.2 µM [inhibitor, single point]
13 | CNC(=S)N/N=C/c1cn(CCOc2cccc(OC)c2)c2ccccc12 | inconclusive: 39.8 µM [inhibitor, partial curve]
14 | CCCCOC(=O)c1ccc(NC(=O)C(=O)CC(=O)c2ccc(OC)cc2)cc1 | inconclusive: 89.1 µM [inhibitor, partial curve, poor fit]
15 | NC(=S)NN=C(c1ccc(Br)cc1)C1CC1 | inconclusive: 39.8 µM [inhibitor, partial curve, poor fit]
16 | Cc1ccccc1NC(=O)COC(=O)CCc1nc2ccccc2c(=O)[nH]1 | inactive
17 | CCCCn1c(-c2ccc(S(=O)(=O)N3CCOCC3)cc2)csc1=Nc1ccccc1 | inconclusive: 7.94 µM [inhibitor, full curve, poor fit]
18 | CCN(c1cccc(C)c1)S(=O)(=O)c1nnc(NC(=O)c2cccs2)s1 | inconclusive: 10 µM [inhibitor, full curve]
19 | CCOc1cc(N2CCOCC2)c(OCC)cc1NCC(=O)N1CCN(Cc2ccccc2)CC1 | active: 20 µM
20 | CC(O)/C=C/c1cccc[n+]1C (stereo unspecified) | inactive
21 | CN(CCOc1ccc(Cl)cc1)C(=O)c1ccc(S(=O)(=O)N2CCOCC2)cc1 | inactive
22 | CCOC(=O)c1cc(-c2ccccc2)n(CCC(=O)N2CCN(c3ccc(OC)cc3)CC2)c1C | inconclusive: 20 µM [inhibitor, partial curve, poor fit]
23 | CCC(C)n1ncn(-c2ccc(N3CCN(c4ccc(O)cc4)CC3)cc2)c1=O (stereo unspecified) | inconclusive: 89.1 µM [inhibitor, partial curve, poor fit]
24 | CCOc1ccccc1NC1=C(OC)C(=O)C(Nc2ccccc2OCC)=C(OC)C1=O | active: 8.91 µM

Row | Compound | Potency
25 | COc1ccc(C(=O)NCCc2ccc(Cl)cc2)cc1S(=O)(=O)N1CCCCC1C (stereo unspecified) | inactive
26 | COc1ccccc1N1C(=O)CC(Nc2ccc(N3CCOCC3)cc2)C1=O (stereo unspecified) | inconclusive: 31.6 µM [inhibitor, single point]
27 | CC(C)Oc1ccc(C(=O)Nc2ccccc2N2CCCC2)cc1 | inconclusive: 70.8 µM [inhibitor, single point]
28 | COc1cccc(/C=N/NC(=S)Nc2cccc(S(=O)(=O)N(C)C)c2)c1 | inconclusive: 31.6 µM [inhibitor, partial curve]
29 | CCCCON1C(=O)c2cccc3cccc(c23)C1=O | inactive
30 | COc1cc(/C=C(\C#N)C(=O)c2c(C)[nH]c3ccccc23)cc(OC)c1OC | inconclusive: 50.1 µM [inhibitor, partial curve]
31 | O=C(c1cccs1)N1CCN(Cc2cccnc2)CC1 | inconclusive: 31.6 µM [inhibitor, single point]
32 | CCOC(=O)c1c(NC(=O)c2noc3c2CC(C(C)(C)C)CC3)sc2c1CCCC2 (stereo unspecified) | inconclusive: 12.6 µM [inhibitor, partial curve, poor fit]
33 | CCOC(=O)N1CCN(S(=O)(=O)N2CCCC(C(=O)NCc3cccc(OC)c3)C2)CC1 (stereo unspecified) | inactive
34 | Cc1cc(C=O)c(C)n1-c1ccc(N2CCCC2)c([N+](=O)[O-])c1 | inconclusive: 100 µM [inhibitor, single point]
35 | CNc1nc(-c2ccc3c(c2)CCN3C(=O)c2ccccc2F)cs1 | inconclusive: 39.8 µM [inhibitor, partial curve]
36 | CC(=O)N1CCCc2cc(S(=O)(=O)N3CCC(C(=O)NCCC(C)C)CC3)ccc21 | inactive
37 | Cc1cccc(-n2cc(-c3ccccc3)[nH]c2=S)c1 | inconclusive: 35.5 µM [inhibitor, partial curve]
38 | COc1cccc(NC(=O)c2cc([N+](=O)[O-])ccc2NCc2cccnc2)c1 | inconclusive: 39.8 µM [inhibitor, single point]
39 | O=C(Nc1cc2c3c(c1)C1CCCC1CN3CC1CCCC21)c1ccccc1 (stereo unspecified) | inconclusive: 50.1 µM [inhibitor, partial curve]
40 | COc1ccc(CN2CCCC(C(=O)N(C)Cc3ccccc3)C2)cc1OC (stereo unspecified) | inconclusive: 15.8 µM [inhibitor, partial curve, poor fit]
41 | CC(=O)c1cccc(-n2c(CCC(=O)O)ccc2-c2cccs2)c1 | inconclusive: 79.4 µM [inhibitor, single point]
42 | CSc1ccc(/C=N/n2c(COc3ccccc3)n[nH]c2=S)cc1 | inconclusive: 17.8 µM [inhibitor, full curve]
43 | O=C(CSc1nncn1-c1ccccc1)NC1CCCCC1 | inactive
44 | CCCn1c(CCC(=O)O)ccc1-c1ccccc1 | inconclusive: 15.8 µM [inhibitor, full curve]
45 | CSc1nc(NCCN(C)C)c2sc3nc(-c4ccco4)c4c(c3c2n1)CCC4 | inconclusive: 50.1 µM [inhibitor, partial curve]
46 | O=C(CSc1nnc(-c2ccccc2)n1Cc1ccco1)NCc1ccc2c(c1)OCO2 | inactive
47 | CCn1c(=O)c2sccc2n2c(CCCC(=O)N3CCN(c4ccc(OC)cc4)CC3)nnc12 | inactive
48 | CCN1CCN(C(C)C(=O)NC2CCCCC2)CC1 (stereo unspecified) | inconclusive: 25.1 µM [inhibitor, partial curve]

Row | Compound | Potency
49 | COc1ccc(NC(=S)Nc2ccc(OCc3ccccc3)cc2)c(OC)c1 | inconclusive: 20 µM [inhibitor, partial curve, poor fit]
50 | COc1ccc(/C(=N/O)C(C)(C)NO)cc1 | inconclusive: 56.2 µM [inhibitor, partial curve, poor fit]
51 | Nc1ccc(Oc2ccc(Br)cc2)cc1 | inconclusive: 70.8 µM [inhibitor, partial curve]
52 | COc1ccc2cc(C(=O)N/N=C/c3sc4ccccc4c3O)ccc2c1 | inconclusive: 28.2 µM [inhibitor, single point]
53 | Cc1ccc(N=C2NC(=O)/C(=C/C=C/c3ccco3)S2)cc1 | inconclusive: 50.1 µM [inhibitor, partial curve, poor fit]
54 | O=C(Cc1ccccc1)N(Cc1cccnc1)c1nc2c(F)cccc2s1 | inactive
55 | O=C1CSC(=S)N1/N=C/c1ccc(O)c([N+](=O)[O-])c1 | active: 39.8 µM
56 | COCCNC(=O)CSc1cc(-c2ccccc2)c2ccc(OC)cc2n1 | inactive
57 | CCC(C(=O)Nc1ccc(C(=O)OC)cc1)n1nc(-c2ccc(C)cc2)c2c(c1=O)CCCC2 (stereo unspecified) | inactive
58 | Cc1ccc(NCc2ccco2)cc1C | inconclusive: 15.8 µM [inhibitor, full curve]
59 | CCCN(CCC)C(=O)CSc1nc2ccccc2c(=O)n1CC1COc2ccccc2O1 (stereo unspecified) | inactive
60 | CCOC(=O)N1CCN(C(=O)C2CCN(C(=O)c3ccccc3C)CC2)CC1 | active: 7.94 µM
61 | O=C(c1ccccc1)N1CCN(C2CCCCCC2)CC1 | inconclusive: 44.7 µM [inhibitor, partial curve, poor fit]
62 | COc1ccc(-n2c(C)cc(C(=O)CSc3ccc(NC(C)=O)cc3)c2C)cc1 | inconclusive: 50.1 µM [inhibitor, partial curve]
63 | O=C(O)CC1(CC(=O)NCc2cc(F)cc3c2OCOC3)CCCCC1 | inactive
64 | CSc1ncccc1C(=O)OCC(=O)c1cc(C)n(CC2CCCO2)c1C (stereo unspecified) | inconclusive: 50.1 µM [inhibitor, partial curve, poor fit]
65 | Cc1cccc(NCCNc2cccc(C)c2)c1 | inconclusive: 39.8 µM [inhibitor, partial curve, poor fit]
66 | CCOC(=O)c1sc(N=NC2=C(O)CCCC2=O)c(C(=O)OCC)c1C | inconclusive: 50.1 µM [inhibitor, partial curve]
67 | COCCn1nnnc1C(C(C)C)N1CCOCC1 (stereo unspecified) | inactive
68 | CC(C)(C)c1ccc(C2Sc3ccccc3NC3=C2C(=O)c2ccccc23)cc1 (stereo unspecified) | inconclusive: 12.6 µM [inhibitor, full curve]
69 | OC(CNCC1(N2CCCCC2)CCCCC1)COc1ccc(Cl)cc1Cl (stereo unspecified) | inconclusive: 79.4 µM [inhibitor, partial curve, poor fit]
70 | CC(C)(C)n1cnc2cc(NC(=O)c3cccs3)ccc21 | inactive
71 | COc1ccc(N=C(N)SCc2ccccn2)cc1 | inconclusive: 89.1 µM [inhibitor, single point]

— PubChem BioAssay AID540317 (National Center for Advancing Translational Sciences (NCATS), 2011)
